Measurements as given in the supplement of paper PMC9446081.
Hit rate of the full screen: of about 39,000 compounds, about 220 (0.56%) showed activity. The list shows a part of the results.

The compounds below were run on Escherichia coli K-12 BW25113 (assay: relative growth (OD600 normalised to plate interquartile mean) (fraction); higher = less growth inhibition, active = 0.2 or less). Conditions: 50 µM; LB; incubation time: overnight (16-24 h).
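Note: static incubation at 37 °C against the wild-type strain, values averaged over two biological replicates.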

SMILES | relative growth
C[C@H]1CN([C@@H](C)CO)S(=O)(=O)c2ccc(Br)cc2O[C@H]1CN(C)C(=O)CCN1CCCCC1 | inactive: 1.01
C[C@@H]1CCCCO[C@H](CN(C)C(=O)Nc2cccc3ccccc23)[C@H](C)CN([C@H](C)CO)C(=O)c2cc(N(C)C)ccc2O1 | inactive: 1.02
COCCCNC(=O)[C@@H]1c2ccccc2C(=O)N(Cc2cc(C(F)(F)F)cc(C(F)(F)F)c2)[C@H]1c1ccc(CO)cc1 | inactive: 0.859
CS(=O)(=O)N1[C@@H]2Cn3c(ccc(-c4ccc(F)cc4)c3=O)[C@H]1[C@@H](C(=O)N1CCOCC1)[C@@H]2CO | inactive: 0.99
CO[C@@H]1CN(C)C(=O)c2cc(NS(C)(=O)=O)ccc2OC[C@@H](C)N(C(=O)C2CCCCC2)C[C@H]1C | inactive: 1
C[C@@H]1CN([C@H](C)CO)C(=O)c2cc(NC(=O)C3CC3)ccc2O[C@H]1CN(C)S(=O)(=O)c1ccc(Cl)cc1 | inactive: 0.991
C[C@@H]1CN([C@@H](C)CO)C(=O)c2cc(NC(=O)Nc3ccc(F)cc3)ccc2O[C@H]1CN(C)C(=O)Nc1cccc2ccccc12 | inactive: 1.01
Cc1ccc(S(=O)(=O)Nc2ccc3c(c2)C(=O)N([C@H](C)CO)C[C@H](C)[C@@H](CN(C)Cc2ccc(C(F)(F)F)cc2)OCCCC[C@H](C)O3)cc1 | inactive: 1.05
C[C@H](CO)N1C[C@H](C)[C@@H](CN(C)S(=O)(=O)c2cn(C)cn2)Oc2cc(C#Cc3ccccc3)ccc2S1(=O)=O | inactive: 0.994
CC(C)(C)[S@](=O)N1Cc2cc(C(=O)NCCN3CCCCC3)nc(-c3cccc(-c4cccc(C#N)c4)c3)c2[C@@H]1CCO | inactive: 0.986
C[C@@H]1CCCCO[C@H](CN(C)Cc2ccc3c(c2)OCO3)[C@@H](C)CN([C@@H](C)CO)C(=O)c2cc(NC(=O)c3ccccc3)ccc2O1 | inactive: 1.03
C[C@@H]1CCCCO[C@@H](CN(C)S(=O)(=O)c2cn(C)cn2)[C@@H](C)CN([C@H](C)CO)C(=O)c2cc(NC(=O)CCCN(C)C)ccc2O1 | inactive: 1.01
C[C@H](CO)N1C[C@H](C)[C@@H](CN(C)S(=O)(=O)c2ccc(F)cc2)Oc2ccc(NC(=O)Nc3cccc4ccccc34)cc2CC1=O | inactive: 1.01
C[C@@H]1CN([C@@H](C)CO)C(=O)CCCn2cc(nn2)CO[C@H]1CN(C)S(=O)(=O)c1ccc(C#N)cc1 | inactive: 1.01
C[C@@H]1CCCCO[C@@H](CN(C)C(=O)Nc2ccccc2)[C@@H](C)CN([C@H](C)CO)C(=O)c2cc(NC(=O)CCCCCC(=O)Nc3ccccc3N)ccc2O1 | inactive: 1.01
C/C=C1\NC(=O)[C@H]2CSSCC/C=C/[C@H](CC(=O)N[C@H](C(C)C)C(=O)N2)OC(=O)[C@H](C(C)C)NC1=O | inactive: 1.05
COCC#Cc1ccc2c(c1)O[C@H](CN(C)C(=O)Nc1ccccc1F)[C@@H](C)CN([C@H](C)CO)S2(=O)=O | inactive: 0.966
COc1ccc(S(=O)(=O)N(C)C[C@H]2Oc3ccc(NS(C)(=O)=O)cc3CC(=O)N([C@H](C)CO)C[C@H]2C)cc1 | inactive: 0.971
CC(C)NC(=O)N(C)C[C@@H]1OCCCC[C@H](C)Oc2ccc(NS(C)(=O)=O)cc2C(=O)N([C@H](C)CO)C[C@@H]1C | inactive: 0.902

SMILES | relative growth
Cc1ccc(S(=O)(=O)N(C)C[C@@H]2OCCCC[C@H](C)Oc3ccc(NC(=O)Nc4cccc5ccccc45)cc3C(=O)N([C@H](C)CO)C[C@@H]2C)cc1 | inactive: 0.968
C[C@H](CO)N1C[C@H](C)[C@H](CN(C)S(=O)(=O)c2ccccc2F)Oc2ncc(C#Cc3cccnc3)cc2C1=O | inactive: 0.974
C[C@@H]1CCCCO[C@H](CN(C)S(=O)(=O)c2ccccc2)[C@H](C)CN([C@H](C)CO)C(=O)c2cc(NC(=O)Nc3ccccc3)ccc2O1 | inactive: 1.02
NS(=O)(=O)c1ccc(Cl)c2nonc12 | inactive: 1
CNC(=O)C[C@H]1CC[C@H]2[C@@H](COC[C@@H](O)CN2C(=O)Nc2ccc3c(c2)OCO3)O1 | inactive: 0.981
COc1ccc(S(=O)(=O)Nc2ccc3c(c2)CC(=O)N([C@H](C)CO)C[C@H](C)[C@H](CN(C)S(=O)(=O)c2ccc(F)cc2)O3)cc1 | inactive: 0.932
C[C@@H]1CCCCO[C@H](CN(C)C(=O)Cc2ccccc2)[C@H](C)CN([C@@H](C)CO)C(=O)c2cc(NS(=O)(=O)c3ccc(F)cc3)ccc2O1 | inactive: 1
CCCNC(=O)N(C)C[C@@H]1Oc2ncc(-c3ccc(C(=O)N(C)C)cc3)cc2C(=O)N([C@H](C)CO)C[C@H]1C | inactive: 1.01
C[C@@H]1CCCCO[C@H](CN(C)S(=O)(=O)c2ccc(F)cc2)[C@H](C)CN([C@H](C)CO)C(=O)c2cc(NS(=O)(=O)c3ccc(Cl)cc3)ccc2O1 | inactive: 1.01
Cc1ccc(S(=O)(=O)N(C)C[C@H]2Oc3ccc(NC(=O)C4CC4)cc3C(=O)N([C@@H](C)CO)C[C@H]2C)cc1 | inactive: 1.01
C[C@@H]1CN([C@@H](C)CO)C(=O)c2cc(NS(=O)(=O)c3ccc(F)cc3)ccc2O[C@H]1CN(C)C(=O)Nc1cccc2ccccc12 | inactive: 1.01
C=CCC[C@@H](Cc1ccc(F)cc1)C(=O)OC[C@H](Cc1c[nH]c2ccccc12)NC(=O)[C@@H](CC=C)CC(=O)N(CCO)Cc1ccccc1 | inactive: 1.06
NCC[C@@H]1CC[C@H](NC(=O)C2CC2)[C@@H](CO)O1 | inactive: 1.01
C[C@@H]1CN([C@@H](C)CO)C(=O)c2cc(NC(=O)Cc3cn(C)c4ccccc34)ccc2O[C@@H]1CN(C)Cc1ccc(Cl)c(Cl)c1 | inactive: 0.996
C[C@@H]1CN([C@H](C)CO)C(=O)c2cccc(NC(=O)c3ccncc3)c2O[C@@H]1CN(C)S(=O)(=O)c1ccc(F)cc1 | inactive: 1
C[C@@H]1CCCCO[C@@H](CN(C)Cc2ccc(Cl)c(Cl)c2)[C@@H](C)CN([C@H](C)CO)C(=O)c2cc(N(C)C)ccc2O1 | inactive: 1.02
COc1ccccc1NC(=O)N(C)C[C@H]1Oc2ncc(C#CCN(C)C)cc2C(=O)N([C@H](C)CO)C[C@@H]1C | inactive: 0.977
COc1ccc([Si](C)(C)[C@H]2[C@H](CC(=O)N(CCO)Cc3ccccc3)O[C@@]3(C(=O)N(Cc4ccc(N5CCC5=O)cc4)c4ccccc43)[C@@H]2C)cc1 | inactive: 0.869
C[C@H]1CCCCO[C@H](CN(C)C(=O)Nc2cccc3ccccc23)[C@@H](C)CN([C@@H](C)CO)C(=O)c2cc(NC(=O)NC3CCCCC3)ccc2O1 | inactive: 1.03

SMILES | relative growth
COc1ccc(S(=O)(=O)N(C)C[C@@H]2OCCCC[C@H](C)Oc3ccc(NC(=O)NC4CCCCC4)cc3C(=O)N([C@H](C)CO)C[C@H]2C)cc1 | inactive: 1.03
C[C@H](CO)N1C[C@H](C)[C@@H](CN(C)C(=O)Nc2ccc(F)cc2)Oc2c(NC(=O)CCCCCC(=O)Nc3ccccc3N)cccc2C1=O | inactive: 0.995
C[C@H]1CN([C@@H](C)CO)S(=O)(=O)c2ccc(C#CCN(C)C)cc2O[C@H]1CN(C)C | inactive: 0.981
C[C@@H]1CN([C@@H](C)CO)C(=O)CCCn2nncc2CO[C@@H]1CN(C)S(=O)(=O)c1ccc2ccccc2c1 | inactive: 1.01
C[C@H](CO)N1C[C@H](C)[C@@H](CN(C)S(C)(=O)=O)Oc2ccc(NC(=O)CCCCCC(=O)Nc3ccccc3N)cc2CC1=O | inactive: 0.999
N[C@@H](CC(=O)O)c1cccc([N+](=O)[O-])c1 | inactive: 1.03
C[C@@H]1CCCCO[C@H](CN(C)CC2CC2)[C@H](C)CN([C@@H](C)CO)C(=O)c2cc(NC(=O)Nc3ccc4c(c3)OCO4)ccc2O1 | inactive: 0.974
C[C@@H]1CCCCO[C@H](CN(C)C(=O)C2CCCCC2)[C@@H](C)CN([C@H](C)CO)C(=O)c2cc(NC(=O)Nc3ccc(F)cc3)ccc2O1 | inactive: 0.998
C[C@H](CO)N1C[C@H](C)[C@H](CN(C)C(=O)Nc2ccc3c(c2)OCO3)OCCCC[C@H](C)Oc2ccc(NC(=O)CCCCCC(=O)Nc3ccccc3N)cc2C1=O | inactive: 0.995
COc1ccc(NC(=O)Nc2ccc3c(c2)CC(=O)N([C@@H](C)CO)C[C@H](C)[C@@H](CN(C)C(=O)Nc2ccc(C(F)(F)F)cc2)O3)cc1 | inactive: 0.993
COc1ccc(Nc2ccc(-c3ccncc3)s2)cc1Cl | inactive: 1.04
O=C(O)CCC(=O)C(=O)O | inactive: 0.987
Cc1noc(C)c1NC(=O)N(C)C[C@H]1OCCCC[C@H](C)Oc2ccc(NS(=O)(=O)c3cccs3)cc2C(=O)N([C@@H](C)CO)C[C@@H]1C | inactive: 0.972
COc1cc(CN2C(=O)[C@@H]3[C@H]4C(=O)O[C@@H](c5ccccc5)[C@H](C)N(C)C(=O)CC/C=C\CN(Cc5ccccc5)C(=O)[C@H]2[C@]32C=C[C@@H]4O2)ccc1O[SiH](C(C)C)C(C)C | inactive: 1.04
COc1ccc(S(=O)(=O)N(C)C[C@H]2OCCCC[C@@H](C)Oc3ccc(NC(=O)Nc4ccccc4)cc3C(=O)N([C@@H](C)CO)C[C@H]2C)cc1 | inactive: 1.02
CCOC(=O)c1ncn2c1C(=O)OC2(C)C | inactive: 0.987
C[C@H]1CN([C@@H](C)CO)C(=O)c2cccc(NC(=O)c3ccc(-c4nccs4)cc3)c2O[C@H]1CN(C)Cc1ccc2c(c1)OCO2 | inactive: 1.01
C[C@H](CO)N1C[C@H](C)[C@@H](CN(C)S(=O)(=O)c2ccc(Oc3ccccc3)cc2)OCc2cnnn2CCCC1=O | inactive: 0.992
